Data taken from article PMC4336329 (PLoS ONE, 2015).
In all, about 310,000 compounds went through this assay and about 14,000 (4.5%) showed an effect of 50% or more. The effect is printed as a negative number. The list shows a part of the results.

These compounds were tested against human ether-à-go-go-related gene (hERG) potassium channel (human, UniProt Q12809) (assay: primary screen, population patch clamp on CHO cells stably expressing hERG).
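Also: peak tail current of the secondary pulse compared with the same well before compound.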

Sequence of human ether-à-go-go-related gene (hERG) potassium channel (Q12809 whole entry, looked up): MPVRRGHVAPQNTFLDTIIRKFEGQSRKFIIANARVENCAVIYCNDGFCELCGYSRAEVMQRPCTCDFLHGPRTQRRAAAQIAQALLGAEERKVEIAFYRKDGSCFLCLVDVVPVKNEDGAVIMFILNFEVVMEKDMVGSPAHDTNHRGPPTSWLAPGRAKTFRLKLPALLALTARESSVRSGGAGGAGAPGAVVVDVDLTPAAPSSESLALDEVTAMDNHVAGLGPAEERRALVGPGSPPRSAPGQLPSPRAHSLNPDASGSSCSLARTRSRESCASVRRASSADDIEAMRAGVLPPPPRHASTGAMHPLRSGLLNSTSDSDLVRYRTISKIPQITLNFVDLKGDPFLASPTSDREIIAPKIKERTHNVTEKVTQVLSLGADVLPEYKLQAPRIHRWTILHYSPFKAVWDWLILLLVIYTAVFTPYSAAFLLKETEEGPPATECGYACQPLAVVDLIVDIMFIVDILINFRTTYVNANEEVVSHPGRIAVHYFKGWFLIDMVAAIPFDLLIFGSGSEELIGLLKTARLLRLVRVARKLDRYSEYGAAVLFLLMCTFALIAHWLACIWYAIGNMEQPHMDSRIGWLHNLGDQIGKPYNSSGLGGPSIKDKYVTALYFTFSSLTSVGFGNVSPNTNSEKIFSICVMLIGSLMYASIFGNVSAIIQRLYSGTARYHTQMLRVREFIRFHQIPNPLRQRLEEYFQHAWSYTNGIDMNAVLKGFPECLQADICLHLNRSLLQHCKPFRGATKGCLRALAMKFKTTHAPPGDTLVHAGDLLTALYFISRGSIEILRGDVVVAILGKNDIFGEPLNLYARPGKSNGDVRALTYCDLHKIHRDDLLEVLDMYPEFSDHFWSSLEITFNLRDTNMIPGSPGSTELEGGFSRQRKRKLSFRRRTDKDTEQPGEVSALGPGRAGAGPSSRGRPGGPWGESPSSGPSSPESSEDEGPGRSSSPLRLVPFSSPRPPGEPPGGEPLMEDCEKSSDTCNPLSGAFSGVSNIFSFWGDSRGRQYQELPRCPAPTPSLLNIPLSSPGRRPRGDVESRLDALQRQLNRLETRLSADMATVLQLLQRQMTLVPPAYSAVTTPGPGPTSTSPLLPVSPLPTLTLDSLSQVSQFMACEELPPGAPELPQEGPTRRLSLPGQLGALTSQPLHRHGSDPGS

SMILES	hERG current change (%, negative = inhibition) at 10uM [%]
CN(c1ccc(C(=O)N/N=C/c2cccc([N+](=O)[O-])c2)cc1)S(=O)(=O)c1ccccc1	1.88
C=CCN1C=C2C(=O)C(C)(OC(=O)c3ccc(OC)cc3)C(=O)C(c3ccco3)=C2C=C1CCCC (stereo not shown)	11.9
COS(=O)(=O)[O-].Cn1nnc(CC[N+](C)(C)C)n1	14.7
Cc1cc2nc(-c3cccnc3SCC(=O)NC(C)C)[nH]c2cc1C	25.4
COc1cccc(C(=O)O/N=C/c2ccc(Sc3ccc(C)cc3)nc2)c1	24.9
Cc1ccc(C23CC4CC(CC(C(=O)NC(C)C(=O)O)(C4)C2)C3)cc1 (stereo not shown)	26.7
N#Cc1cc(-c2ccccc2)nnc1Sc1ccccc1	26.3
OC12CCCCC1C(c1ccc3c(c1)OCO3)N(Cc1ccccc1F)CC2 (stereo not shown)	-10.9
COC(=O)C1C(=O)c2c([nH]c(C(=O)OC3CCCCCC3)c2C)CC1C (stereo not shown)	8.03
O=C1c2ccccc2NC(c2cn[nH]c2-c2ccccc2)N1O (stereo not shown)	-6.97
Nc1ccccc1/C=N\N=C/c1ccccc1N	-0.527
CCNc1ccc(C(=O)Nc2ccc3nc(C)sc3c2)cc1[N+](=O)[O-]	2.48
Cc1ccc(-n2c(SCC(=O)N3CCC(C(=O)O)CC3)nc3ccccc3c2=O)cc1C	25.1
c1coc(CSc2ncnc3c2oc2ccccc23)c1	13.9
Clc1ccc(-c2cc(CSc3ccccc3)on2)cc1	6.26
O=C(O)c1cc([N+](=O)[O-])cc2c1C=Cc1ccccc1O2	15.4
COc1ccc(CCNC(=O)c2cc3c(=O)n4ccccc4nc3n(Cc3ccco3)c2=N)cc1OC	-76.6
CCOc1ccccc1CN1CCNC(=O)C1CC(=O)NC1CCCCC1 (stereo not shown)	8.06
Cc1ccc(OCC(=O)NNC(=O)CSc2ncc(C#N)c(N)n2)cc1	30.3
CC1(C)CC(=O)C(N=Nc2cc3c(cc2[N+](=O)[O-])OCCO3)=C(O)C1	31.2
CN(C)c1ccc(C(=S)N2CCN(Cc3ccccc3)CC2)cc1	-44.1
Cn1c(O)c(/C=N/N2CCCCC2)c(=O)[nH]c1=O	13.8
O=C(NCC1CCCO1)C1CCN(S(=O)(=O)N2CCCC2)CC1 (stereo not shown)	-9.85
CC1=NN(C(=O)CCc2ccccc2O)C(O)(C(F)(F)F)C1 (stereo not shown)	18.9
O=C(CN(C1CCCCC1)S(=O)(=O)c1ccc(Cl)cc1)NCCCO	-25.8
NCCCC[C@H]1CNC(=O)C(=O)N1CCC12CC3CC(CC(C3)C1)C2	-6.32
Cc1ccc(SCC(=O)OCC(=O)NC2CCCCCCC2)cc1	-4.33
O=C(NCCc1ccccc1)C1CCN(Cc2cccc3ccccc23)CC1	-34.4

SMILES	hERG current change (%, negative = inhibition) at 10uM [%]
Cc1ccc2nc(N3CCN(c4ccccc4F)CC3)c(C=O)c(=O)n2c1	-70.1
Cc1[nH]c(=O)[nH]c(=O)c1NC(=O)c1sc2nc3c(C)cccc3cc2c1N	18.8
CCN(CC)CC(O)COC(c1ccccc1)c1ccccc1 (stereo not shown)	-57.8
COc1ccc(/C=C2\SC(=O)N(CCNC(=O)Cc3coc4cc(C)ccc34)C2=O)cc1OC	4.76
CCOc1ccc(N(C(=O)c2snc(C(N)=O)c2N)C(C(=O)NCC2CCCO2)c2ccco2)cc1 (stereo not shown)	8.01
O=C(CN(c1ccc(Cl)c(C(F)(F)F)c1)S(=O)(=O)c1ccccc1)N1CCOCC1	-34.6
O=S(=O)(NCc1cn2ccsc2n1)c1ccc2c(c1)OCCO2	8.16
N#C/C(C(=O)NCc1ccccc1)=C1/N=C(NC(=O)c2cccs2)c2ccccc21	-3.78
COc1ccc(C2C(C(C)=O)=C(O)C(=O)N2CCCn2ccnc2)cc1OC (stereo not shown)	-10.8
COc1cc2c(cc1OC)C(/C(C#N)=N\O)=NC(C)(C)C2	2.2
CCOC(=O)N1CCN(C(=O)CCCn2nc(C)c3sc4ccccc4c3c2=O)CC1	-40.8
COCCN(C(=O)Nc1ccccc1)c1ccccc1C	9.3
COc1ccccc1CNC(=O)C(=O)NCC1CCCO1 (stereo not shown)	12.8
Cc1ccc(OCC(=O)N/N=C\c2c(C)[nH]n(-c3ccccc3)c2=O)c([N+](=O)[O-])c1	5.19
Oc1ccc(/C=N/N(Cc2ccccc2)c2ccccc2)cc1	35.8
CC(NC(=O)COc1ccc(/C=N/NS(=O)(=O)c2ccccc2)cc1)c1ccccc1 (stereo not shown)	10.2
C/C(=N\N1C(=O)CSC1=S)c1ccc(Br)cc1	2.26
CC(C)(C)c1ccc(C(=O)NCC(=O)OCC(=O)Nc2ccc3c(c2)OCCO3)cc1	3.07
Cn1cccc1/C=C1\SC(=S)N(NC(=O)c2cccc(Cl)c2)C1=O	0.415
Cc1nnc2ccc(-c3cccc(NS(=O)(=O)c4ccccc4Cl)c3)nn12	-16.3
O=C(NC(=O)c1ccccc1)Nc1ccccn1	9.33
CCCCn1c(N)c(N(CC(C)C)C(=O)c2cc(-c3ccc(F)cc3)nc3ccccc23)c(=O)[nH]c1=O	8.13
O=C(CSc1ccccc1C(=O)O)c1ccc([N+](=O)[O-])cc1	-1.57
COC(=O)c1cc(S(=O)(=O)N2CCN(c3ccc(F)cc3)CC2)cn1C	3.66
COc1ccccc1-n1c(CNC(=O)c2ccco2)nnc1SCC(=O)Nc1nccs1	5.63
CC12CN3CC(C)(CN(C1)C3c1cccnc1)C2=O (stereo not shown)	-0.24
O=C(CN1CCN(S(=O)(=O)c2ccc(Br)cc2)CC1)N/N=C/c1cc([N+](=O)[O-])ccc1Cl	-32.9
